Results reported in the RNAGym collection of RNA variant scans (doi:10.1093/nar/gkz1192).
The source gives no read counts; variants with many changes may rest on few reads.

B1: CPEB3 Ribozyme (parent)
chain: UAACAGGGGGCCACAGCAGAAGCGUUCACGUCGCAGCCCCUGUCAGAUUCUGGUGAAUCUGCGAAUUCUGCUGUAUAUCUC

Variants of: B1
Test: self-cleavage, relative activity (ratio to wild type); higher = more cleavage; in vitro, sequencing
How it was run: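 For each CPEB3 ribozyme variant, relative activity is its cleaved/total read fraction divided by the unmutated ribozyme's. Barcoded error-prone PCR libraries were transcribed by T7 RNA polymerase (5 hours, 37°C) and held in DNase I for 15 min before an EDTA stop, with cleavage occurring throughout. Template-switching reverse transcription and Illumina sequencing were used to read the RNAs. A 5-read minimum applied, and results are the mean of three batches.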

Variant | self-cleavage
UAACUGGGGGCCACAGCAGAAGCGUUCACGCCACAGCCCCUGUCAGAUUCUGGUGAAUCUGCGAAUUCUGCUGUAUAUCUC [A5U U31C G33A] | 0.24
UAACUGGGGGCCACAGCAGAAGCGUUCACGUCGCAGCCCCCGUCAGACUCUGGUGGUUCUGCGAAUUCUGCUGUAUAUCAC [A5U U41C U48C A56G A57U U80A] | 0.2
UAACUGGGGGCCACAGCAGAAGCGUUCACGUCGCAGCCCCAGUCAGAUUCUGGUGAAUCUGCGAUUUCUGCUGUAUAUCUC [A5U U41A A65U] | 0.19
UAACUGGGGGCCACAGCAGAAGCGCUCACGUCGCAGCCCCCGUCAGAUUCUGGUGAAUCUGCGAAUUCCGCAGAAUAUCUC [A5U U25C U41C U69C U72A U74A] | 0.08
UAACUGGGGGCCACAGCAGAAGCGUCCACGUAGCAGCCCCCGUCGGAUUCUGGAGAAUCUGCGAAUUCUGCCGUAUAUCUC [A5U U26C C32A U41C A45G U54A U72C] | 0.08
UAACUGGGGGCCACAGCAGAAGCGGUCACGUCGCAGCCCUUGUCAGAUUCUGGUGAAUCUGCGAAUUCUGCUGUAUAUCUC [A5U U25G C40U] | 0.31
UAACUGGGGGCCACAGCAGAAGCGUUCACGCCGCAGCCCCUGCCAGAAUCUGGUGAAUCUGCGAAUUCUGCCGUAUUUCUC [A5U U31C U43C U48A U72C A77U] | 0.07
UAACUGGGGGCCACAGCAGAAGCGUCCACGUCGCAGCCCCUGUCAGAUUCUGGCGAAUCCGCGAGUUCAGCUGUAUAUCUC [A5U U26C U54C U60C A65G U69A] | 0.17
UAACUGGGGGCCACAGCAGAAGCGUGCACGUCGCAGCCCCUGUCAGAUUCUGGCGACUCUGCGAAUUCUGCUGUAUAUCUC [A5U U26G U54C A57C] | 0.35
UAACUGGGGGCCACAGCAGAAGCGUACACGUCGCAGCCCCGGUCAGAUUCUGGUGGAUCUGCGAAUUCUGCUGUAUAUCUC [A5U U26A U41G A56G] | 0.21
UAACUGGGGGCCACAGCAGAAGCGUUCACGCCGCAGCCCCUGUCAGACUCUGGUGGACCAGCGAAUUCUGCUGUAUAACUC [A5U U31C U48C A56G U58C U60A U78A] | 0.16
UAACUGGGGGCCACAGCAGAAGCGUCCACGUCGCAGCCCCUGUCAGACUCUGGUGAAUCUGCGAAUUCUGCUGUAUAUCUC [A5U U26C U48C] | 0.68
UAACUGGGGGCCACAGCAGAAGCGUUCACGUCGCAGCCCCCGUCAGAUUCUGGCGAAUCUGCGAAUUCUGCUGUAUACCUC [A5U U41C U54C U78C] | 0.98
UAACUGGGGGCCACAGCAGAAGCGUACACGUCGCGGCCCCUGUCAGGAUCUGGUGAACCUGCGAAUUCCGCUGUAUAUCUC [A5U U26A A35G A47G U48A U58C U69C] | 0.91
UAACUGGGGGCCACAGCAGAAGCGCUCACGUCGCAGCCCCUGUCAGAUUCUGGUGAAUCUGCGAAUUCUGCUGCAUAUCUC [A5U U25C U74C] | 0.3
UAACUGGGGGCCACAGCAGAAGCGCUCACGUCGCAGCCCCCGUCAGAUUCUGGUGAAUCUGCGAAUUCUGCUGUAUAUCUC [A5U U25C U41C] | 0.17
UAACUGGGGGCCACAGCAGAAGCGUUCACGACGCAGCCCCUGUCGGACUCUGGUGAAUCUGCGGAUUCUGCUGUAUAUCUC [A5U U31A A45G U48C A64G] | 0.04

Variant | self-cleavage
UAACUGGGGGCCACAGCAGAAGCGUCCCCGUCGCAGCCCCUGUCAGAUUCUGGUGAGUCUGCGAAUUAUGCAGUAUAUCUC [A5U U26C A28C A57G C68A U72A] | 0.09
UAACUGGGGGCCACAGCAGAAGCGGACACGUCGCAGCCCCUGUCAGACUCUGGUGAAUCUGCGAAUUCUGCCGUAUAUCUC [A5U U25G U26A U48C U72C] | 0.1
UAACUGGGGGCCACAGCAGAAGCGUCCACGUCGCAGCCUCUGUCUGAUCCUGGUGAGUCUGCGAAUUCCGCUGUAUAUCUC [A5U U26C C39U A45U U49C A57G U69C] | 0.06
UAACUGGGGGCCACAGCAGAAGCGUCCACGCCGCAGCCCCUGUCAGAUUCUGGUGAAUCUGCGAAUUCUGCUGUAUAACUC [A5U U26C U31C U78A] | 0.62
UAACUGGGGGCCACAGCAGAAGCGUUCACGCCGCUGCCCCUGUCAGAUUCUGGUGAAUCUGCGAAUUCUGCUGUAUGUCUC [A5U U31C A35U A77G] | 0.41
UAACUGGGGGCCACAGCAGAAGCGUCCACGUCGCAGCCCUUGUCAGAUUCUGGUGAAUCUGCGAAUACUGCUGUAUAUCUC [A5U U26C C40U U67A] | 0.15
UAACUGGGGGCCACAGCAGAAGCGUACACGCCGCAGCCCCUGUCAGAUUCUGGUGGAGCUGCGAAUUCCGCUGUAUACCUC [A5U U26A U31C A56G U58G U69C U78C] | 0.07
UAACUGGGGGCCACAGCAGAAGCGUCCACGUCGCAGCCCCUGUCAGAUUCUGGUGAAUCUGCGAAUUCAGCUGUAUAUCUC [A5U U26C U69A] | 0.3
UAACUGGGGGCCACAGCAGAAGCGUCCACGUCGCAGCCCCUGUCAGAUUCUGGUGAAUCUGCGAAUUCGGCUGUAUAUCUC [A5U U26C U69G] | 0.28
UAACUGGGGGCCACAGCAGAAGCGUCCACGCCGCAGCCCCUGCCAGAUUCUGGUGAAUCCGCGAAUUCUGCCGUAUAUCUC [A5U U26C U31C U43C U60C U72C] | 0.12
UAACUGGGGGCCACAGCAGAAGCGUCCUCGACGCAACCCCUGUCUGAUUCUGGUGAAUCUGCGAAUUCUGCUGUAUAUCUC [A5U U26C A28U U31A G36A A45U] | 0.11
UAACUGGGGGCCACAGCAGAAGCGUACACGUCGCUGCCCCUGUCAGAUUCUGGUGAAUCUGCGAAUUCUGCUGUAUAUCUC [A5U U26A A35U] | 0.26
UAACUGGGGGCCACAGCAGAAGCGUUCACGACGCAGCCCCUGUCAGACUCUGGUGAAUCUGCGAAUUCUGCUGUAUAUCUC [A5U U31A U48C] | 0.61
UAACUGGGGGCCACAGCAGAAGCGUCCUCGUCGCAGCCCCUAUCAGAUUCCGGUGGAUCUGCGAAUUCUGCUGUAUAUCUC [A5U U26C A28U G42A U51C A56G] | 0.18
UAACUGGGGGCCACAGCAGAAGCGUUCACGUCGCAGCCCCCGUCUGAUUCCUGUGAAUCUGCGAAUUCUGCUGUAUAUCUC [A5U U41C A45U U51C G52U] | 0.69
UAACUGGGGGCCACAGCAGAAGCGUUCACGUCGCAGCCCCAGUCGGAUUCUGGUGAAUCUGCGAAUUCUGCUGUAUAUCUC [A5U U41A A45G] | 0.35
UAACUGGGGGCCACAGCAGAAGCGUUCACGACGCAGCCCCUGUCAGAUUCUGGUGAAUCUGCGAAUUCUGCCGUAUAUCUC [A5U U31A U72C] | 0.83
